Several values for one entry are separate records, joined by “and”; a condition that tells them apart may be missing. Equal values may be shown once. Screen size: about 220,000 compounds; about 16,000 (7.3%) were called active. The inconclusive results got no clear call from the source; some entries with a clear call stand among them for comparison. Calls follow the shape of the dose curve; as a rule, active = well fitted inhibition curve with a large enough effect (not every such curve was filed as active); inconclusive = small, poorly fitted or top-dose-only effect, or another doubt; inactive = no such curve, though single readings can be large or run the other way. Where the call is inconclusive, the potency comes from a doubtful curve fit.
Target: Aldehyde dehydrogenase 1A1 (Homo sapiens) (UniProt P00352)
Experiment: qHTS Assay for Inhibitors of Aldehyde Dehydrogenase 1 (ALDH1A1)
Details: Purified ALDH1A1, NADH fluorescence, propionaldehyde substrate; series mostly up to 75.3 µM
Potency is read from the fitted curve at half-maximal effect; tags tell the direction and shape of the fitted curve.

Chain of UniProt P00352 (P00352 whole entry, looked up): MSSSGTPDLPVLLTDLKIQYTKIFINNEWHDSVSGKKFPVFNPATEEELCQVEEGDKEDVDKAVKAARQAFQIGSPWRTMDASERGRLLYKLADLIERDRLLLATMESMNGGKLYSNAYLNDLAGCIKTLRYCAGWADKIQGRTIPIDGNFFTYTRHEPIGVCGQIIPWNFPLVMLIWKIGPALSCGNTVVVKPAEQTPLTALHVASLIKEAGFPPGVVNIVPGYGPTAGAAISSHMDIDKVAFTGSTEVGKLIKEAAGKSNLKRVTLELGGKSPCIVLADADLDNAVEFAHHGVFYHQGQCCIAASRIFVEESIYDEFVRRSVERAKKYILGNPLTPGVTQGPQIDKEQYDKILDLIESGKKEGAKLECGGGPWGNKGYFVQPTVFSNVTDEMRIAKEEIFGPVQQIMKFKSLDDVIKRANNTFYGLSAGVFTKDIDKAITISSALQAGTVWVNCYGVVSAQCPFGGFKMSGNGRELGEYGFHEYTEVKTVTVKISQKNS

| SMILES | Potency |
| --- | --- |
| COC(=O)c1ccc(NC(=O)Cn2cnc3c(nnn3-c3cccc(OC)c3)c2=O)cc1 | inconclusive: 39.8 µM [inhibitor, single point] |
| Cc1ccc(C(=O)N2CCN(c3cc4c(cc3[N+](=O)[O-])n(C)c(=O)n4C)CC2)cc1 | inconclusive: 28.2 µM [inhibitor, partial curve] |
| COc1ccc(C2=NOC(C(=O)NCc3ccco3)C2)cc1 (stereo not given) | active: 22.4 µM |
| CCOC(=O)C1CCCN(C(=O)c2ccccc2NC(C)=O)C1 (stereo not given) | inactive |
| CC(=O)Nc1cccc(NC(=O)c2cc(C)on2)c1 | inconclusive: 31.6 µM [inhibitor, single point] |
| CC(C)OC(=O)/C(=C/c1ccc2c(c1)c1ccccc1n2C)NC(=O)c1ccccc1 | inconclusive: 39.8 µM [inhibitor, single point] |
| COC(=O)c1cc(CSc2nnc(NC3CCCCC3)s2)oc1C | inconclusive: 39.8 µM [inhibitor, single point] |
| O=c1c2sc3nc(N4CCOCC4)c4c(c3c2ncn1CCc1ccccc1)CCCC4 | inconclusive: 14.1 µM [inhibitor, single point] |
| CCOC(=O)CC(=O)CSc1nc(-c2ccc3c(c2)OCO3)cc(C(F)(F)F)c1C#N | inconclusive: 12.6 µM [inhibitor, partial curve] |
| CC(C)C(OC(=O)/C=C/c1ccc2c(c1)OCO2)C(=O)NC(N)=O (stereo not given) | inconclusive: 31.6 µM [inhibitor, single point] |
| O=C(CCc1ccc(S(=O)(=O)N2CCOCC2)cc1)N/N=C/c1ccc(F)cc1F | inactive |
| Cc1cc(=O)oc2cc(OC(=O)c3cncc(Br)c3)ccc12 | inconclusive: 12.6 µM [inhibitor, partial curve] |
| CCOC(=O)c1[nH]c2cc3c(cc2c1NC(=O)CN1CC(C)CC(C)C1)OCO3 (stereo not given) | inconclusive: 39.8 µM [inhibitor, single point] |
| Cc1nn(C)c(Cl)c1C(N)=O | inactive |
| CCOCc1[nH]c(=S)[nH]c(=O)c1Cc1ccc(OC(C)C)cc1 | active: 12.6 µM |
| O=C(C1CCCCC1)N(CCN1CCN(c2ccccc2CO)CC1)c1ccccn1 | inactive |
| CCOC(=O)C1=C(C)NC(C)=C(C(=O)OCC)C1c1cccc(C)n1 | inconclusive: 35.5 µM [inhibitor, single point] |
| CCC(SC1=NCCS1)C(=O)Nc1nnc(-c2ccccc2OC)s1 (stereo not given) | inconclusive: 39.8 µM [inhibitor, partial curve] |
| CC(C)N1CC(C(=O)Nc2ccccc2)CC1=O (stereo not given) | inactive |
| C=CCn1c(=O)/c(=C/c2ccc(Cl)cc2)s/c1=C(/C#N)c1nnc2n1CCCCC2 | inconclusive: 20 µM [inhibitor, single point] |
| c1ccc(-c2nn3c(C4CCCCC4)nnc3s2)cc1 | inconclusive: 22.4 µM [inhibitor, single point] |
| O=C(CN1N=C(c2ccccc2)CCC1=O)NCCCN1CCc2ccccc2C1 | inactive |
| O=Cc1c(-c2ccc(F)cc2)nc2ccccn12 | inconclusive: 39.8 µM [inhibitor, single point] |
| Cc1cc(C)c2c(N)c(C(=O)C(C)(C)C)sc2n1 | inconclusive: 31.6 µM [inhibitor, single point] |
| CCC(=O)NC(c1cccs1)c1cc([N+](=O)[O-])c2cccnc2c1O (stereo not given) | inactive |

| SMILES | Potency |
| --- | --- |
| Cn1c(C(=O)N2CCN(Cc3ccccc3)CC2)cc2c(=O)n(C)c3ccccc3c21 | inconclusive: 35.5 µM [inhibitor, single point] |
| COc1cc(-c2nc3ccccc3s2)ccc1O | inconclusive: 22.4 µM [inhibitor, partial curve] |
| Cc1ccc(S(=O)(=O)N2CCN(c3nc(C)nc4sc5c(c34)CCC(C)C5)CC2)cc1 (stereo not given) | inactive |
| Cc1nc2nc(SCC(=O)c3ccc([N+](=O)[O-])cc3)[nH]c2cc1Br | inconclusive: 35.5 µM [inhibitor, single point] |
| CSc1nnc(C)c(/C=C/Nc2ccc(F)cc2F)n1 | inconclusive: 31.6 µM [inhibitor, single point] |
| COc1ccc(CCCOC(Cn2ccnc2)c2ccc(OC)cc2)cc1 (stereo not given) | inconclusive: 39.8 µM [inhibitor, single point] and inconclusive: 14.1 µM [inhibitor, partial curve, poor fit] |
| Cc1ccc(C2=NNC(C(O)C(O)C(O)C(O)CO)S2)cc1 (stereo not given) | inconclusive: 39.8 µM [inhibitor, single point] |
| O=C(CCc1nnc(CCCc2ccccc2)o1)NCCc1ccco1 | inconclusive: 25.1 µM [inhibitor, single point] |
| COC(=O)C1=C(N)c2c(F)cccc2C1(C#N)c1ccc(F)cc1 (stereo not given) | inconclusive: 28.2 µM [inhibitor, single point] |
| CC1(C)Cc2nc(NCCCO)c(C#N)cc2CO1 | inconclusive: 25.1 µM [inhibitor, partial curve] |
| CC(=O)Nc1nc(NC(=O)/C=C/c2ccccc2)n(-c2ccccc2)n1 | inactive |
| CC1(c2ccc3c(c2)OCO3)NC(=O)N(CC(=O)Nc2ccc(N3CCOCC3)cc2)C1=O (stereo not given) | inactive |
| Cc1cc(C)cc(NC(=S)N(CCN2CCCCC2)Cc2ccco2)c1 | inactive |
| Cc1nnc(SCC(=O)N2CCC(C(=O)Nc3nccs3)CC2)n1Cc1ccccc1 | inactive |
| CC(NC(=S)Nc1ccccc1Cl)C(c1ccccc1)N1CCOCC1 (stereo not given) | active: 28.2 µM |
| COc1cccc(CNCc2ccc(SC)cc2)c1OC | inactive |
| COc1ccc(/C=C/C(=O)c2ccccc2)c(OC)c1 | inconclusive: 39.8 µM [inhibitor, single point] |
| Cc1ccsc1-c1nc(CSCC(=O)NCc2ccc3c(c2)OCO3)c(C)o1 | inconclusive: 28.2 µM [inhibitor, partial curve] |
| COCCCNC(=O)Cn1c(=O)n(Cc2ccccc2Cl)c(=O)c2cc(OC)c(OC)cc21 | inconclusive: 3.16 µM [inhibitor, full curve] |
| CCCCCCSc1nnc2[nH]c(=O)cc(N)n12 | inactive |
| Clc1ncnc2scc(-c3ccccc3)c12 | inactive |
| CC/C(=N/NC(=O)c1ccccc1)c1ccc(OCCN2CCOCC2)cc1 | active: 10 µM |
| Fc1ccc(Oc2cnc3ccccc3n2)cc1 | inactive |
| COc1ccc(C(C)=O)c(O)c1 | inconclusive: 39.8 µM [inhibitor, single point] |
| O=c1cc(-c2c(F)c(F)c(F)c(F)c2F)oc2ccccc12 | active: 15.8 µM |

| SMILES | Potency |
| --- | --- |
| O=[N+]([O-])/C(C(Cl)=C(Cl)Cl)=C(\Nc1ccc(F)cc1)n1cncn1 | active: 12.6 µM |
| CS(=O)(=O)N(CC(=O)NCCc1ccccc1)c1cccc([N+](=O)[O-])c1 | inactive |
| COc1ccc(N=Cc2c(O)n(-c3ccc(OC)cc3)c(=O)c3ccccc23)cc1 | inconclusive: 35.5 µM [inhibitor, single point] |
| CCCc1cc(=O)[nH]c(SCC(=O)N2CCN(S(=O)(=O)c3ccc(C)cc3C)CC2)n1 | inconclusive: 15.8 µM [inhibitor, partial curve, poor fit] |
| Cc1ccc(OCC(=O)NNC(=O)CSc2nnc(-c3ccc(C)cc3)n2C)cc1 | inactive |
| CC1Cc2ccccc2N1C(=O)CSc1nnc(CNc2ccccc2)o1 (stereo not given) | active: 25.1 µM |
| COc1cc(/C=N/NC(N)=S)ccc1OCC(=O)Nc1ccc(C)c(C)c1 | inconclusive: 20 µM [inhibitor, single point] |
| CCN(CC)c1ccc(NS(=O)(=O)c2ccc(OC)cc2)cc1 | inconclusive: 22.4 µM [inhibitor, single point] |
| Cc1ccc(-c2nc3ncccc3o2)cc1NC(=O)c1cccnc1 | inconclusive: 39.8 µM [inhibitor, single point] |
| O=C1CC(N2CCSCC2)C(=O)N1c1cccc(Cl)c1 (stereo not given) | inconclusive: 25.1 µM [inhibitor, single point] |
| CCOc1ccc(N2CC(C(=O)NCc3cccc(C)c3)CC2=O)cc1 (stereo not given) | inconclusive: 7.94 µM [inhibitor, full curve] |
| O=C(CCSc1nc(-c2ccco2)cc(C(F)(F)F)n1)Nc1ccc2c(c1)OCO2 | inactive |
| Cc1cc(C)nc(SC2c3cccc4cccc(c34)C2NS(=O)(=O)c2ccccc2)n1 (stereo not given) | inconclusive: 35.5 µM [inhibitor, single point] |
| Cc1cccc(C)c1OCC(=O)Nc1ccc(N2CCOCC2)cc1 | inactive |
| Cc1ccc(SCc2nc3ccccc3n2CC(=O)Nc2ccccc2)cc1 | inactive |
| CCCCOC(=O)CSc1nc(N)c(C#N)c(-c2ccc(OCC)cc2)c1C#N | active: 20 µM |
| CCCN1CCN(C(=S)Nc2sc(CC)cc2C(=O)OC)CC1 | inactive |
| COc1ccc(-c2cccc(-c3cc(=O)oc4cc(OC)c(OC)c(OC)c34)c2)cc1 | inconclusive: 44.7 µM [inhibitor, single point] |
| Cc1ccc(C(=O)/C=C\C(=O)c2ccc(C)cc2)cc1 | active: 7.08 µM |
| COc1ccccc1NC(=O)CSc1nnc(Cc2cccn2C)n1-c1ccc(F)cc1 | active: 17.8 µM |
| CCCn1c(N)c(C(=O)CSc2nc3ccccc3c(=O)n2-c2ccc(OC)cc2)c(=O)[nH]c1=O | inactive |
| Cc1cc(C)[n+](-c2ccc(C(C)C)cc2)c2[nH]c(=O)[nH]c(=O)c12 | inconclusive: 31.6 µM [inhibitor, partial curve] |
| O=C(C1=C(O)C(=O)N(c2ncccn2)C1c1cccc(Cl)c1)c1ccco1 (stereo not given) | active: 17.8 µM |
| CCc1c(-c2ccccc2)nc(N)c(C#N)c1-c1cccs1 | inactive |
| c1ccc(-c2ccccc2OCCCCN2CCCCC2)cc1 | inconclusive: 7.08 µM [inhibitor, full curve, poor fit] |
